This note sets out measurements from article PMC4336329 (PLoS ONE, 2015).

The campaign covered roughly 310,000 compounds. About 14,000 (4.5%) showed an effect of 50% or more. The effect is printed as a negative number. The list shows a part of the results.
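Note: peak tail current of the secondary pulse compared with the same well before compound.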

For the assay, the target named is human ether-à-go-go-related gene (hERG) potassium channel (human, UniProt Q12809). Nature of the assay: primary screen, population patch clamp on CHO cells stably expressing hERG.
Sequence of human ether-à-go-go-related gene (hERG) potassium channel (Q12809 whole entry, looked up): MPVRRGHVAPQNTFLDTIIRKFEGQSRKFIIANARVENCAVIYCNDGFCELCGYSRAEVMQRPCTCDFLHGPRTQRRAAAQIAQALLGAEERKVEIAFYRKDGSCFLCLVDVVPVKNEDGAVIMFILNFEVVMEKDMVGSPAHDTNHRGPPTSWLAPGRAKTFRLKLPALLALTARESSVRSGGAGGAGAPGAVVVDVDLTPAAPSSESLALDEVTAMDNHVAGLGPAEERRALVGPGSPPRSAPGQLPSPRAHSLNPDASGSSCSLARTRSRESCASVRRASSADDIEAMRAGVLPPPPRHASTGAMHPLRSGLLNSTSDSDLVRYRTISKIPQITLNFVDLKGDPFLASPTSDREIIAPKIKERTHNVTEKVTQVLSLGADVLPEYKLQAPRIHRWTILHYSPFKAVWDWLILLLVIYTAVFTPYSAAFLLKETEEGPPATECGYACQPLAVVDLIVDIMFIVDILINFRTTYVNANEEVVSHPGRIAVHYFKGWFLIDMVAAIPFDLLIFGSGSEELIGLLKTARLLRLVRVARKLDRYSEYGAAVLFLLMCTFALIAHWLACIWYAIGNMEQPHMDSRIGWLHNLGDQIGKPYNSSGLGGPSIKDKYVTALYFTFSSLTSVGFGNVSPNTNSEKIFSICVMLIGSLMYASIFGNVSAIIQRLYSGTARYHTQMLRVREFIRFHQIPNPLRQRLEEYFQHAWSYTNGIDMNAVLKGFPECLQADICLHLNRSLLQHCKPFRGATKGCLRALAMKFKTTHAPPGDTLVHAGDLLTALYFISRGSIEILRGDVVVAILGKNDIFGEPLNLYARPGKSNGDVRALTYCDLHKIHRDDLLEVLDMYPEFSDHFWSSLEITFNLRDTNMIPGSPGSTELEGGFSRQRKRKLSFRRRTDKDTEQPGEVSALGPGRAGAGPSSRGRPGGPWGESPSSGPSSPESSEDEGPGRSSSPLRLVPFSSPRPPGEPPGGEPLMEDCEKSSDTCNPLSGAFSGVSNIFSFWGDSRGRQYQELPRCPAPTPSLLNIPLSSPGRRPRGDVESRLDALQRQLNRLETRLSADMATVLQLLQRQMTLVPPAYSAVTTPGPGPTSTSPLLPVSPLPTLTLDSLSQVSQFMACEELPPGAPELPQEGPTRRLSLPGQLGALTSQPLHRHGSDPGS
With `CC(=O)Nc1ccc(NS(=O)(=O)c2ccc(Cl)c(C(=O)O)c2)cc1`, the “hERG current change (%, negative = inhibition) at 10uM” value came out at 0.754%.
For `CO/N=C(\c1nonc1N)N1CCN(c2ccc(Cl)cc2[N+](=O)[O-])CC1` the value was 8.71%; for `CCCCn1c(N)c(N(CCOC)C(=O)c2ccc3c(c2)C(=O)N(c2ccccc2C)C3=O)c(=O)[nH]c1=O`, 4.8%.
For `CS(=O)(=O)N(CC(=O)NCC1CCCO1)Cc1ccc(Cl)cc1` (stereo not drawn), the “hERG current change (%, negative = inhibition) at 10uM” value amounted to 10.2%.
For `CC(=O)Nc1ccc(NC(=O)C2CC(=O)N(c3ccccc3Cl)C2)cc1` (stereo not drawn), the “hERG current change (%, negative = inhibition) at 10uM” value worked out at 16%.
For the molecule `O=c1cc(CSc2nnnn2-c2ccccc2)nc2nc[nH]n12`, the “hERG current change (%, negative = inhibition) at 10uM” value amounted to 17.9%.
With `Fc1cccc(Cl)c1CNCc1cccnc1`, the “hERG current change (%, negative = inhibition) at 10uM” value is 7.68%.
For `COc1ccc(C(C)=O)cc1CN1C(=O)NC2(CCCCCCC2)C1=O` the value was 14.8%.
As to `O=C(Cn1c(=O)oc2ccccc21)NCCc1ccccc1Cl`, the “hERG current change (%, negative = inhibition) at 10uM” value is 9.25%.
For `CCCCOP(=O)(c1ccc(N(C)C)cc1)C(O)c1ccc(OC)c(OC)c1` (stereo not drawn) the value was 2.28%; for `O=C(COC(=O)c1ccc(Cl)c(S(=O)(=O)N2CCCCC2)c1)NCC1CCCO1` (stereo not drawn), -14.1%; for `COc1ccc(-c2cc(-c3ccccc3)nc(SCC(=O)Nc3ncc(C)s3)c2C#N)cc1`, -5.9%.
For `Cc1cc(NC(=O)CCC(=O)N(c2ccc(C)c(F)c2)C(C(=O)NC2CCCC2)c2ccco2)no1` (stereo not drawn) the value was 1.71%; for `CC(C)n1c(SC2CCOC2=O)nc2ccccc21` (stereo not drawn), 0.0978%; for `CC(=O)c1ccc(NC(=O)c2cnn3ccccc23)cc1`, -3.97%.
Take `Cc1cccc(C)c1NC(=O)C(NC(=O)CN1C(=O)c2ccccc2C1=O)c1ccccc1` (stereo not drawn): the “hERG current change (%, negative = inhibition) at 10uM” value was determined as 5.04%.
Take `O=C(Nc1cccc(O)c1)c1ccc(NC(=O)C2CCCO2)cc1` (stereo not drawn): the “hERG current change (%, negative = inhibition) at 10uM” value was determined as 25.4%.
For `Cn1cc(Br)cc2nc(C(F)(F)F)nc1-2` the value was -0.815%; for `CC(NC(=O)C1CCN(C(=O)[C@@H]2Cc3ccccc3CN2C(=O)OC(C)(C)C)CC1)c1ccccc1` (stereo partly drawn), 14%.
For `CC(=O)Nc1ccc(NC(=O)C(C)OC(=O)CNS(=O)(=O)c2cccc(Cl)c2)cc1` (stereo not drawn) the value was 18.7%; for `O=S(CC(O)COCc1ccc(Cl)cc1)c1ccccn1` (stereo not drawn), 26.8%; for `CC(C)NC(=O)c1ccc(Sc2ccccc2)c([N+](=O)[O-])c1`, 8.54%.
For `CCCNC(=O)c1oc2ccc3c(c2c1C)C(=O)CC(C)(C)O3` the value was -3.97%; for `COc1cccc(C2NC(CC(C)C)(C(=O)O)C3C(=O)N(Cc4ccccc4)C(=O)C23)c1O` (stereo not drawn), 10.2%.
